According to ChEMBL document CHEMBL1201862, “PubChem BioAssay data set” (2004):

System: NCI-H322M
Assay: NCI tumour cell line growth inhibition, 48 h

Compound | GI50
COc1ccc2[nH]c(C(=O)N3CC(CCl)c4c3cc(N)c3ccccc43)cc2c1 (centres undefined) | active: < 0.0146 µM
CCCCCCOc1ccc(NC2=C(Cl)C(=O)c3cccnc3C2=O)cc1 | inactive: 1.65 µM
O=C1/C(=C\c2ccc([N+](=O)[O-])cc2)CS(=O)(=O)C/C1=C/c1ccc([N+](=O)[O-])cc1 | inactive: 3 µM
CCOc1ccc(NC(=O)C(=O)CC(=O)c2sc(NNC(C)=O)nc2C)cc1 | inactive: > 100 µM
CNCC(SC)c1ccc(O)c(O)c1 (centres undefined) | inactive: 61.5 µM
CC1(C)OCC(COC(=O)NCn2cc(-c3ccccc3)nn2)O1 (centres undefined) | inactive: > 100 µM
Cc1nnc(N/N=C(/C(=O)C(C#N)c2ccccc2)C(C#N)c2ccccc2)n1N (centres undefined) | inactive: 15.1 µM
CC(C)(C)/N=C\N1CCC(C(c2ccccc2)c2ccccc2)CC1 | inactive: 85.1 µM
COc1cc(CNC(=O)CCCCCCCC/C=C/Br)ccc1O | inactive: > 10 µM
Cc1cnc2ccc(C)c([N+](=O)[O-])c2c1NCCCN(C)C | inactive: 36.1 µM
CCOc1ccc(Nc2nc(N)nc(N)c2N)cc1 | inactive: > 100 µM
CCCN1C(=O)C/C(=C\C(C)=O)Nc2ccccc21 | inactive: > 100 µM
CCC/C(=N\NC(=O)c1cc2ccccc2cc1O)C(CC)C(=O)CCC(=O)N(Cc1ccccc1)Cc1ccccc1 (centres undefined) | inactive: 51.8 µM
CCN1CC2(CO)CCC(OC)C34C5CC6C(OC)CC(O)(C5C6OC)C(O)(C(OC)C23)C14 (centres undefined) | inactive: > 375 µM
Cc1ccnc(Nc2[nH]c(C(=O)c3ccc(Cl)cc3)c(N)c2C(=S)Nc2ccccc2)c1 | inactive: 12.9 µM
COc1ccc2c(c1)c1c(n2CCN(C)C)-c2cccc(OC)c2CC1 | inactive: 13.6 µM
OCc1c2c(cc3c1CC1(C3)Cc3cc4c(c(CO)c3C1)CCC4)CCC2 | inactive: 21.5 µM
CC1(O)C=CC2CCC1C2O (centres undefined) | inactive: > 100 µM
CCCCCCCCCCCCCCCCCCOc1ccc(/C=C/C2=[N+](CCCl)CCO2)cc1 | inactive: > 100 µM
CCn1c(=O)c2c3ccc(OC)cc3[nH]c2c2ccc(OC)cc21 | inactive: 62.8 µM

Compound | GI50
CCc1nc2ccc(C(F)(F)F)cc2[nH]c1=O | inactive: > 100 µM
COc1cccc2c3ccccc3c3nc[nH]c3c12 | inactive: > 64.1 µM
CCN(CC)CCCNC(=O)c1ccccc1Nc1c(Cl)cccc1Cl | inactive: 14.5 µM
COc1nc2ccc(COc3ccc(C(=O)O)cc3)cc2nc1OC | inactive: > 100 µM
CN(C)C(=O)NCCN1CCCCCc2ccccc21 | inactive: > 100 µM
CC(C)OC(=O)c1ccc(CCc2cc(O)c(Br)cc2O)cc1 | inactive: 23.2 µM
COC(=O)/C(C#N)=C1\CCC(O)N1C (centres undefined) | inactive: > 100 µM
NC(CC1=CS(=O)(=O)c2ccc(Cl)cc21)C(=O)O (centres undefined) | inactive: > 100 µM
Cn1ccnc1CC(C)(O)c1ccccc1 (centres undefined) | inactive: > 100 µM
CC(NC1=NCCO1)c1ccsc1 (centres undefined) | inactive: 37.5 µM
O=C(O)CSC(NC(=O)C(C(F)(F)F)C(F)(F)F)(C(F)(F)F)C(F)(F)F | inactive: > 100 µM
C[C@@H]1OC(=O)C[C@H]2CC(=O)N(CCc3cn(S(=O)(=O)C(F)(F)F)c4ccccc34)C[C@@H]21 | inactive: > 100 µM
Cc1ccccc1NC(=O)C(=O)CC(=O)c1sc(Nc2ccccc2[N+](=O)[O-])nc1C | inactive: 41.5 µM
CCOC(=O)COc1ccc(/C=C/C(=O)c2ccc(OC)cc2)cc1 | inactive: 46.9 µM
CC(=O)O[C@H]1CC[C@H]2[C@@H]3CCC4=CC(=O)C=C[C@]4(O)[C@H]3CC[C@]12C | inactive: > 68.4 µM
N#Cc1ccc([N+](=O)[O-])cc1NC(N)=S | inactive: > 100 µM
COCCOC(C)C(=O)C(O)S(=O)(=O)O (centres undefined) | inactive: > 100 µM
O=C(O)Cn1ccc(=O)c2cc([N+](=O)[O-])ccc21 | inactive: > 100 µM
O=[N+]([O-])c1cc2oc(CSc3ccccc3)nc2cc1Cl | inactive: 36.9 µM

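Cultured in 96-well plates, cells were exposed to test compound for 48 hours across five concentrations. Abbreviation: GI50, concentration required for 50% inhibition of growth.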 Calls of active or inactive are those of the source. Rule as the data show it: active = GI50 up to about 1.1 µM and inactive = higher.
